The list shows a part of the results. Repeats are few or missing, and single values can be far off.

The subject of the experiment is Candida albicans DPL-15. The experiment can be described thus: growth (OD600) after compound treatment (apparently relative to screen median) (relative growth (fraction; screen median 1.02)); DPL-15 is a caspofungin-resistant clinical isolate; higher = more fungal growth (less antifungal activity). The settings on record: 25 µM; RPMI 1640; 48 h; 30 °C.
Consider `CO/C(=C\c1cc2c(C(=O)OC(C)(C)C)c(O)cc(OC)c2o1)CC(C)=O`, for which the growth turned out to be 1.09.

For `CC(=O)C1=C2NCCN2C(=O)CC1c1cccc(F)c1` (stereo not drawn), the growth amounted to 1.17. For the molecule `CC(C)CC1=NCCNC2=C1C(c1ccccc1)NC2=O` (stereo not drawn), the growth came out at 1.02. For `COC(=O)[C@@H]1[C@@H](c2ccccc2)[C@]2(c3ccc(OC)cc3)Oc3cc(OC)cc(OC)c3[C@@]23NC(C2CCN(C(=O)OC(C)(C)C)CC2)=N[C@@]13O`, the growth stood at 0.769. `COC(CC[C@]1(C)[C@H]2CC[C@@H]3[C@H]4[C@H](C(C)C)CC[C@]4(COC(C)=O)CC[C@@]3(C)[C@]2(C)CC[C@H]1C(C)=O)OC`: the growth stood at 1.06. As for `CC(C)c1c2c(nn1C)C(=O)N(c1ccccc1)C2c1ccccc1` (stereo not drawn), the growth was determined as 0.915.

As for `C=CCC1CC2=C(OC)C(CC=C)(CC=C)C(=O)C(C(=O)c3ccccc3)=C2OC1(C)C` (stereo not drawn), the growth turned out to be 1.06. On to `COC(=O)C1=C(C)N(Cc2ccccc2)C(=S)NC1c1ccc(Cl)cc1` (stereo not drawn), for which the growth is 0.87. With `Cn1nccc1Nc1cc(O)cc(O)c1C(=O)N1CC2CC2C1` (stereo not drawn) the figure was 1.06. As to `COc1ccc(C2NC(=O)N3CCC=CC3=C2C(C)=O)cc1` (stereo not drawn), the growth amounted to 1. Consider `CC(=O)C1=C2C=CCCN2C(=O)NC1c1cccc(F)c1C` (stereo not drawn), for which the growth was found to be 0.919. Regarding `C#CCCN1N=C(SC)[C@@H]2N(Cc3ccccc3)c3ccccc3[C@@]23CC(=O)N=C13`, the growth was 0.961. With `COc1ccc2c(c1)[C@@H](NCC=C(C)C)[C@H](C)[C@H]2c1ccccc1`, the growth was 1.08. Take `COC(=O)C1=C(C)N(C)C(NCc2ccc(C(F)(F)F)cc2)=NC1c1cccc(Cl)c1` (stereo not drawn): the growth worked out at 1.08. With `CCCCN[C@@]12C(=O)[C@H](C(=O)OC)[C@@H](c3ccccc3)[C@]1(c1ccc(OC)cc1)Oc1cc(OC)cc(OC)c12` the figure was 0.937; with `O=P1(O)Oc2c(-c3ccccc3)cc3ccccc3c2-c2c(c(-c3ccccc3)cc3ccccc23)O1`, 1.31; with `Cc1ccc(C2C3=C(NC(C)(C)CN=C3CC(C)C)C(=O)N2c2ccccc2)cc1` (stereo not drawn), 1.02. In the case of `CC1(C)CNC(=O)CC(O)CNC(=O)c2cccc(c2)-c2cc(n[nH]2)C1` (stereo not drawn), the growth is 1.05. For `COc1cccc(C2NC(=S)N(C)C(C)=C2C(C)=O)c1` (stereo not drawn), the growth was found to be 1.03. As for `Cn1c(-c2ccc(N3CCOCC3)cc2)c(O)c(=O)c2ccccc21`, the growth was 1.08. In the case of `COc1ccc(N2C(=O)c3[nH]nc(CC(C)C)c3C2c2c(Cl)cccc2Cl)cc1F` (stereo not drawn), the growth was 0.904.

For the molecule `COC(=O)c1cc2c(c3c4cc(F)ccc4n(S(=O)(=O)c4ccccc4)c13)C(=O)N(Cc1cccc(F)c1)C2`, the growth was 1.11.

Consider `COC(=O)CC#C[C@@H](C)[C@H](NS(=O)(=O)c1ccc(C)cc1)C(C)(C)C`, for which the growth was determined as 1.16. To `CCOC(=O)N1c2ccc(OC)cc2C=CC1/C=C/c1cccc(F)c1` (stereo not drawn) belongs 1.04.

As to `C=CCCC(=O)NCc1ccc(O)c(OC)c1`, the growth stood at 1.06. To `Cn1nc(C2CCCCC2)cc1Nc1cc(O)cc(O)c1C(=O)N1Cc2ccccc2C1` belongs 0.971; to `COc1ccc(N2C(=O)c3[nH]nc(CC(C)C)c3C2c2cccc(OC)c2)cc1` (stereo not drawn), 1.26. Consider `O=C(/C=C/c1cccnc1)c1ccccc1O`, for which the growth is 1.

`O=C1c2[nH]nc(-c3ccccc3)c2C(c2ccccc2)N1c1ccccc1` (stereo not drawn): the growth is 1.02.

Take `COC(=O)C1=C(C)N(Cc2ccccc2Cl)C(=S)NC1c1cccc(Cl)c1` (stereo not drawn): the growth came out at 0.72. Consider `COc1ccc2c(=O)c3c(F)cccc3oc2c1OCC=C(C)C`, for which the growth was 1.15.

For `C=CCN1C(=O)C2=C(C(c3ccccc3)=NCCN2C)C1c1cccc(C(F)(F)F)c1` (stereo not drawn), the growth was 0.995. With `COC(=O)C1=C(C)N(Cc2ccc(Cl)cc2)C(=S)NC1c1ccccc1Cl` (stereo not drawn) the figure was 0.973; with `COC(=O)c1nnc(C(=O)NCc2ccccc2)c2[nH]c3ccccc3c12`, 1.18. Consider `COc1oc(C)cc(=O)c1-c1ccc(Br)cc1`, for which the growth worked out at 1.02. Consider `COC(=O)C1=C(C)N(C)C(NCc2ccccc2C(F)(F)F)=NC1c1ccccc1` (stereo not drawn), for which the growth worked out at 0.954. `COC(=O)c1[nH]c2ccccc2c1[C@]12CCN(C(=O)Cc3cccc(F)c3F)[C@H]1Nc1ccccc12`: the growth turned out to be 1.01. Regarding `COc1ccc(S(=O)(=O)N2CCCc3nc(-c4ccc(Br)cc4)ccc32)cc1`, the growth is 0.965.

`CC(=O)OC[C@H]1O[C@H](C#Cc2cc(C)cc(C)c2)C=C[C@@H]1OC(C)=O`: the growth worked out at 0.724.

Take `COC(=O)CC/C=C/[C@@]12Oc3cc(OC)c4c(C)cc(O)c5c4c3[C@H](OC5=O)[C@@H]1C[C@@H](C)O2`: the growth amounted to 1.03.

Turning to `CCOC(=O)CN1C(=O)N[C@H](c2ccc(Br)cc2)C(C(C)=O)=C1C`, the growth came out at 0.957.

Turning to `O=C1C2=C(C(c3ccccc3)=NCCN2)C(c2ccccc2)N1Cc1ccccc1` (stereo not drawn), the growth is 0.878. For `COC(=O)[C@@H]1[C@@H](c2ccccc2)[C@]2(c3ccc(OC)cc3)Oc3cc(OC)cc(OC)c3[C@@]23NC(C2CCCCC2)=N[C@@]13O`, the growth is 0.889. Consider `COc1ccc2c(c1)[C@@H](NS(=O)(=O)c1c(C)noc1C)[C@H](C)[C@H]2c1ccccc1`, for which the growth was 0.946. In the case of `CC(=O)C1=C(C)Oc2ccccc2[C@@H]1c1ccccc1`, the growth worked out at 0.972. With `CC(=O)N[C@@H]1[C@@H](C)[C@H](OCc2ccccc2)[C@]23C=CC=C[C@H]2[C@]13CCN1CCOCC1`, the growth was 1.29. In the case of `CC(C)Cc1n[nH]c2c1C(c1ccc(F)cc1)N(CC(C)(CO)CO)C2=O` (stereo not drawn), the growth was determined as 0.91.

As for `O=C1c2ccccc2[C@@H](c2ccccc2)[C@@H]1CCCO`, the growth worked out at 0.986.

Regarding `CC(C)CCc1cc(OCC(N)=O)cc2oc3ccccc3c(=O)c12`, the growth was determined as 1.05. In the case of `COc1ccc([C@H]2C[C@@H](c3ccccc3)c3cc4c(cc3O2)OCO4)cc1`, the growth amounted to 0.897. With `CC(=O)C1=C(C)N(Cc2ccc(Cl)cc2)C(=S)NC1c1ccccc1Br` (stereo not drawn) the figure was 0.948. Consider `O=S(=O)(c1ccccc1)N1CCCc2nc(-c3ccc(F)cc3)ccc21`, for which the growth amounted to 0.839.

As for `CO[C@@H]1CCN(C(=O)c2c(O)cc(O)cc2Nc2ccnn2C)C1`, the growth came out at 1.05. To `C=CC[C@H]1C[C@@]23C[C@H](CC=C)C(C)(C)[C@@](CC=C)(C(=O)C(C(=O)c4ccccc4)=C2OC1(C)C)C3=O` belongs 0.941; to `CC(C)n1cc(Nc2cc(O)cc(O)c2C(=O)N2CC[C@@H](N(C)C)C2)cn1`, 1.09; to `COc1cc(OC)c2c(c1)O[C@@]1(c3ccc(OC)c(O)c3)[C@H](c3ccccc3)[C@@H](C(=O)N(C)OC)[C@@H](O)[C@@]21O`, 1.05. For the molecule `CC1(C)CNC(=O)C(O)CNC(=O)c2cccc(c2)-c2[nH]ncc2C1` (stereo not drawn), the growth is 1.13. As to `COc1ccc(C[C@H]2CO[C@H](c3ccc(OC)cc3)[C@H]2CO)cc1`, the growth was 1.01.

For the molecule `COc1ccc(-c2oc3cc(OC)cc(OC)c3c(=O)c2OCC#Cc2ccccc2)cc1`, the growth was 0.953. For the molecule `CC#CCCN1C(=O)NC(c2ccccc2)C(C(C)=O)=C1C` (stereo not drawn), the growth was determined as 1.05. On to `Cc1ccc(C2C3=C(NC(C)(C)CN=C3C(C)C)C(=O)N2c2ccccc2)cc1` (stereo not drawn), for which the growth came out at 0.937. Consider `COc1ccc(N2C(=O)c3[nH]nc(CC(C)C)c3C2c2ccccc2Br)cc1F` (stereo not drawn), for which the growth turned out to be 0.901. Take `O[C@H]1C[C@@H](c2ccccc2)[C@]2(c3ccc(Cl)cc3)Oc3cc(OCCN4CCCC4)ccc3[C@]12O`: the growth is 1.17.

`CC(=O)C1=C2C=CCCN2C(=O)NC1c1ccc(C)cc1` (stereo not drawn): the growth is 0.902. For the molecule `COC(=O)C1=C(C)N(CCc2cccs2)C(=S)NC1c1ccc(OC)cc1` (stereo not drawn), the growth worked out at 0.897. Regarding `Cn1nc(-c2ccc(C(F)(F)F)cc2)cc1N`, the growth is 1.02. To `CC(C)OCCCNC(N)=S` belongs 1.07; to `O=C(NC(CC1=CCCCC1)c1ccc2c(c1)OCO2)C(F)(F)F` (stereo not drawn), 1.12.

`COC(=O)C1=C(C)N(Cc2ccc(C(F)(F)F)cc2)C(NCC2CC2)=NC1c1ccc(Cl)cc1` (stereo not drawn): the growth is 1.06. For `CC[C@@H](C)[C@H]1O[C@]2(CC[C@@H]1C)C[C@@H](O)C[C@@H](CCO)O2`, the growth amounted to 1. As for `COc1cc([C@H]2c3c(O)c(O)c4oc5ccccc5c(=O)c4c3[C@@H]3C=C(C)CC(C)(C)[C@H]23)c2c(=O)c3ccccc3oc2c1O`, the growth amounted to 1.02. Regarding `COCCN1C(=O)N[C@@H](c2ccco2)C(C(=O)OC)=C1C`, the growth is 1. On to `COc1ccc2c(=O)c3c(CC=C(C)C)cc(OC)c(O)c3oc2c1`, for which the growth came to 1.07. Consider `CC[C@@H](O)COc1cc2c(cc1C1(c3cc4c(cc3OC[C@H](O)CC)OCO4)C(=O)Nc3c(F)cccc31)OCO2`, for which the growth amounted to 0.963.

As for `COC(=O)c1c(-c2ccccc2Br)c2c(c3c4ccccc4n(S(=O)(=O)c4ccc(C)cc4)c13)C(=O)N(C)C2`, the growth came to 1. To `COc1ccc(N2C(=O)c3[nH]nc(CC(C)C)c3C2c2ccsc2)cn1` (stereo not drawn) belongs 0.949; to `CC1(C)COC2(OC1)C(CO[Si](C)(C)C(C)(C)C)=C[C@H](O)[C@@H]1O[C@@H]12`, 0.893. With `COC(=O)C1=C(CCl)NC(=O)N(C(C)=O)C1c1ccccc1` (stereo not drawn) the figure was 1.27. In the case of `CCOCN1CC(=O)N(COCC)CC1=O`, the growth stood at 1.18. Take `COC(=O)C1=C(C)N(Cc2ccccc2)C(=S)NC1c1cccc(Br)c1` (stereo not drawn): the growth turned out to be 0.946. Regarding `COc1cc2c(cc1OC)CN(CCc1ccc(NC(=O)c3cccc4c(=O)c5cccc(O)c5[nH]c34)cc1)CC2`, the growth is 0.858.

Take `O=c1c(O)c(-c2ccccc2Br)oc2ccccc12`: the growth worked out at 1.79. As to `COc1ccc([C@@H]2[C@@H](C(=O)Nc3ccccc3)[C@H](C(=O)Nc3ccccc3)[C@H]2c2ccc(OC)c(OC)c2OC)c(OC)c1OC`, the growth came to 1.07.

The record behind these values is the supplement of paper PMC10986608.
